This note sets out measurements from PubChem BioAssay AID1240 (Sanford-Burnham Center for Chemical Genomics, 2008).

The campaign covered roughly 50,000 compounds. About 800 (1.6%) showed an effect of 50% or more. Some of the results follow.

In this test the target is Bcl-2-like protein 10 (Homo sapiens) (UniProt Q9HD36). The experiment in a line: TR3 peptide-Bcl-B binding displacers, biochemical primary FP assay, phenotype converters (AID 1240).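 Note: 0% = Bcl-B with tracer peptide and DMSO and 100% = tracer peptide lacking Bcl-B.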 The conditions noted are these: GST-Bcl-B / FITC-TR3 peptide fluorescence polarization; stronger effect = higher value; compound at 3.75 mg/L. (Fluorescence polarisation rises when a labelled molecule tumbles more slowly, as on binding a larger partner.)
Sequence of UniProt Q9HD36 (Q9HD36 whole entry, looked up): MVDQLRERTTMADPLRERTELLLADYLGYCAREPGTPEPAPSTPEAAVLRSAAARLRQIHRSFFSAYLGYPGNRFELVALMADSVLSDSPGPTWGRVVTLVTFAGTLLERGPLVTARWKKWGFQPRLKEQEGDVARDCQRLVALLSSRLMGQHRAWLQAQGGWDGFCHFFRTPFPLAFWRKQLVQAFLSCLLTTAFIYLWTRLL
Regarding `O=C(NC(=S)Nc1cccc(Cl)c1)c1ccco1`, the displacement came to 12.8%.
On to `C=CCN1C(=O)/C(=C\c2cn(C)c3ccccc23)C(=O)NC1=S`, for which the displacement is -18.2%.
Consider `COC(=O)c1c(NC(=O)C2C3C=CC(C3)C2C(=O)O)sc2c1CCC2` (stereo unspecified), for which the displacement turned out to be 4.1%.
The same measure for `CN(C1CCS(=O)(=O)C1)S(=O)C12CC3CC(CC(C3)C1)C2` (stereo unspecified): -4.8%; for `CS(=O)(=O)NCCCCNc1ccc(C(F)(F)F)cc1[N+](=O)[O-]`: -12%.
Next, `COc1cc(C2C(C(=O)/C=C/c3ccccc3)=C(O)C(=O)N2CCCCCC(=O)O)ccc1O` (stereo unspecified): -2.7%; `COC(=O)c1cc(C(=O)Nc2ccc(C(C)C)cc2)cc([N+](=O)[O-])c1`: 1.1%.
Next, `O=C1CC(N2CCN(C3CC(=O)N(c4ccc(F)cc4)C3=O)CC2)C(=O)N1c1ccc(F)cc1` (stereo unspecified): 5.1%; `Cc1cccc(NC(=O)c2ccccc2NC(=O)/C=C\c2ccco2)c1C`: 11.4%.
Regarding `NS(=O)(=O)c1ccc(CNC(=O)Cc2ccccc2[N+](=O)[O-])cc1`, the displacement came out at 9.4%.
Next, `O=C(COc1ccc(F)cc1)N1CCN(C(=O)COc2ccc(F)cc2)CC1`: 3.8%; `O=C1NC(=S)S/C1=C\c1ccccc1C(=O)O`: -0.5%.
The same measure for `O=C(/C=C/c1ccccc1Cl)c1ccc(NC(=O)c2cccs2)cc1`: -2.9%.
Next, `C/C(CCc1oc2ccc(C)cc2c1-c1ccc(C)o1)=N\O`: 4.4%; `O=C(Nc1cccc(C(F)(F)F)c1)c1ccccc1C(F)(F)F`: 9.8%; `CCOc1cccc2c1N(C(=O)c1cccc(F)c1)C(C)(C)c1ssc(=S)c1-2`: -4.9%.
Consider `CC(NC(=O)CSc1nnc(-c2ccco2)n1-c1ccccc1)c1ccccc1` (stereo unspecified), for which the displacement is -10.4%.
Take `Cc1cc(=O)oc2cc(OCCO)ccc12`: the displacement was found to be 0.4%.
As for `CC1=C(C(=O)OCc2ccccc2)C(c2ccccc2F)NC(=O)N1` (stereo unspecified), the displacement amounted to 11%.
On to `O=C(c1ccc(CN2CCOCC2)cc1)N1CCCC1`, for which the displacement was 4.3%.
Next, `COc1cc(CN2CCN(C3CCCC(C)C3)CC2)cc(OC)c1OC` (stereo unspecified): 3.1%.
Next, `COc1ccc(-n2cnc3cc(NC(=O)c4ccccc4)ccc32)cc1`: 2.7%; `O=S(=O)(NCc1ccccc1)c1cccc2cccnc12`: -5.4%.
With `O=C1NC(=O)C(=Cc2ccc(-c3cccc(Br)c3)o2)C(=O)N1`, the displacement worked out at 81.1%.
The same measure for `CCc1cc(=O)oc2cc(C)cc(OC(C)C(C)=O)c12` (stereo unspecified): 11%; for `COC(=O)c1cccc(NC(=O)COc2ccc(Br)c(C)c2)c1`: -3.4%.
For `COc1ccc(-c2nnc(-c3cccc(C)c3)o2)cc1`, the displacement came out at 9%.
For the compound `O=c1nc(SCc2ccccc2Cl)sc2ccccc12`, the displacement stood at 9.1%.
The same measure for `N#C/C(=C/c1ccccc1Cl)C(=O)Nc1cccc(Br)c1`: -4.9%; for `CCNC(=O)CC1S/C(=N\N=C(/C)c2ccc([N+](=O)[O-])cc2)NC1=O` (stereo unspecified): 3.5%; for `Nc1nonc1C(=O)N/N=C/c1cccc(Br)c1`: 5.8%.
Next, `C=CCNC(=O)C(=O)N/N=C/c1ccccc1O`: -2.4%; `COc1ccc(NC2=CC(=O)CC(c3ccco3)C2)cc1OC` (stereo unspecified): 3.6%.
For the compound `O=C1NC(=O)c2c1cc1ccccc1c2-c1ccccc1`, the displacement was 11.2%.
`CCCCOc1ccc(-c2nc(-c3ccccc3Cl)no2)cc1`: the displacement is -1.5%.
Next, `O=C(COC(=O)CSCC(=O)Nc1cccc2ccccc12)Nc1ccc(Br)cn1`: -25.3%; `COc1ccc(CCNC(=O)COc2ccccc2OC)cc1OC`: 2.2%.
The same measure for `C=CCNCC1OCc2ccccc2CO1`: 9.4%.
Next, `CC1(C)CC1(C#Cc1ccccc1)C(=O)O` (stereo unspecified): 11.9%.
Take `O=C(CCc1ccccc1)Nc1ccc(Cl)cc1C(F)(F)F`: the displacement came to 1.1%.
Next, `O=C1c2ccccc2C(=O)N1CCSc1nnc(-c2ccncc2)n1-c1ccccc1`: 2.5%; `COc1ccc(N=C2NC(=O)CS2)cc1`: -3.4%; `CCOC(=O)CCc1c(C)nc2cc(-c3ccccc3)[nH]n2c1=O`: -4.2%.
The same measure for `CCCCOP(=O)(C(C)C)C(C)C`: -2.3%; for `COc1cc(C2Nc3ccc4ccccc4c3C3=C2C(=O)CC(C)(C)C3)ccc1OCC#N` (stereo unspecified): -4%.
The same measure for `COc1ccc(Cl)cc1NC(=O)C1=C(C)NC(=S)NC1c1cccc([N+](=O)[O-])c1` (stereo unspecified): 12.3%; for `COc1ccccc1/C=C1/SC(=O)N(CNc2cccc([N+](=O)[O-])c2)C1=O`: 8.2%; for `Cc1ccc(NCCC(=O)c2cccs2)cc1`: 10.1%.
As for `CCC(=O)Oc1ccc2c(C)cc(=O)oc2c1I`, the displacement was -16.5%.
Turning to `CC(c1ccccc1)N1C(=O)c2ccccc2C1(O)Cc1ccccc1` (stereo unspecified), the displacement is -4%.
The same measure for `Cc1ccc(OCc2nnc(NC(=O)Nc3ccc(Cl)c(Cl)c3)s2)cc1`: 13%; for `O=C1C2C3C=CC(CO)(O3)C2C(=O)N1c1cc(C(F)(F)F)ccc1Cl` (stereo unspecified): 5.8%.
Next, `O=C(c1ccc(Br)o1)N1CCc2ccccc21`: 10.9%.
On to `NC(=O)c1ccccc1NC(=O)c1cccc(I)c1`, for which the displacement was -7.2%.
For `Cc1ccc(C(=O)NC(NC(=S)Nc2ccccc2Br)C(Cl)(Cl)Cl)cc1` (stereo unspecified), the displacement is -12.1%.
Next, `O=C1CC(N(Cc2ccc3c(c2)OCO3)C(=S)Nc2ccccc2)C(=O)N1c1ccc(F)cc1` (stereo unspecified): -9.6%; `CCN(CC)C(=O)c1sc(NC(=O)C(C)(C)C)c(C(=O)OC)c1C`: 11.4%; `COc1ccc(C2Nc3ccccc3C(=O)N2c2ccc(Cl)cc2)c(OC)c1` (stereo unspecified): 1.9%.
Turning to `Nc1c(Cl)cc2c(c1Oc1ccccc1)C(=O)c1ccccc1C2=O`, the displacement stood at 8.6%.
Next, `CC(C)(C)c1ccc(S(=O)(=O)Nc2ccc(Cl)c(C(N)=O)c2)cc1`: -5%; `CCC12CN3CC(CC)(CN(C1)C3c1ccc([N+](=O)[O-])cc1)C2=O` (stereo unspecified): -8.3%; `C=CCNC(=O)C(=O)N/N=C/c1cccc(OC)c1`: 8.9%.
The same measure for `Cc1ccc2oc(-c3ccc(NC(=O)c4cccnc4)cc3O)nc2c1`: 3.4%; for `CC(C)c1ccc(/C=N/N2CCN(c3ccccn3)CC2)cc1`: -2.6%.
In the case of `O=C(Nc1cccc2c1C(=O)c1ccccc1C2=O)c1ccc2c(c1)OCO2`, the displacement worked out at 3.8%.
The same measure for `Cc1ccc(-c2cc(C(=O)N3CCN(c4cccc(Cl)c4)CC3)c3ccccc3n2)c(C)c1`: 1.7%; for `CCc1ccccc1N(CC(=O)Nc1ccc(OC)cc1)S(C)(=O)=O`: -1.2%; for `COc1cc(Br)c(/C=c2/sc3nc4ccccc4n3c2=O)cc1OC`: 132%.
The same measure for `O=C(CSc1nnnn1-c1ccccc1)Nc1ccc(O)cc1`: -14.5%; for `CC(C)NCCN1CCn2c1nc1ccccc12`: 10.5%.
In the case of `COc1ccc(CC(=O)N2N=C3CCCCCC3C2(O)C(F)(F)F)cc1` (stereo unspecified), the displacement was 17.6%.
Next, `O=C1C(C=NCc2ccc(Cl)c(Cl)c2)=C(O)c2ccccc21`: 2.5%; `COc1ccc(N2C=Nc3ccc(C)c4nc(C)cc2c34)cc1`: -6.4%; `CC(Sc1ccc(Cl)cc1)C(=O)Nc1ccc(S(=O)(=O)N2CCOCC2)cc1` (stereo unspecified): 8.8%.
For `Cc1cccc(NC(=O)CN2CCOCC2)c1C`, the displacement is 11.6%.
The same measure for `c1ccc2cc3[nH]c(CN4CCOCC4)nc3cc2c1`: 5.2%.
Next, `Cc1nc2cc(-c3cccc(Cl)c3)nn2c(C)c1Cl`: 10.7%.
The same measure for `Cc1ccc(C(=O)N/C(=C\c2cn(-c3ccccc3)nc2-c2ccc(F)cc2)C(=O)NCc2cccnc2)cc1`: 9%; for `COc1c(I)cc(I)cc1/C=N\NC(=O)c1ccc([N+](=O)[O-])cc1`: 9.4%.
Consider `CC1C(C(=O)N(C=O)NC(=O)c2ccc(Cl)cc2)C2C=CC1C21CC1` (stereo unspecified), for which the displacement was -0.1%.
Next, `O=C(CN(c1ccc(F)cc1)S(=O)(=O)c1ccccc1)N1CCCC1`: 0%; `O=C(NCCc1c[nH]c2ccccc12)/C(=C/c1cccc([N+](=O)[O-])c1)NC(=O)c1ccccc1`: 4.5%.
Next, `O=C1/C(=C/c2ccc([N+](=O)[O-])cc2)NC(=S)N1c1ccccc1`: 3.8%.
Next, `COc1ccc(-c2nc3ccccc3c(C(=O)Nc3ccc(C(C)=O)cc3)c2C)cc1`: -19%; `O=C(COc1ccccc1)Nc1ccccc1-c1ccccc1`: -0.3%; `O=c1[nH]c(SCc2ccccc2)nc2ccccc12`: -2.7%.
For the compound `O=C(COc1ccc(Br)cc1)Nc1ccc(OC(F)(F)F)cc1`, the displacement was -1.2%.
`Cc1ccc(S(=O)(=O)N2CCN(S(=O)(=O)c3ccc(C)cc3)C2c2ccc(N(C)C)cc2)cc1`: the displacement is 11.7%.
Next, `COc1ccccc1N1CCN(/N=C\c2cc(OC)c(OC(C)=O)c(OC)c2)CC1`: -6.7%; `COc1ccc(NC2=C(c3ccc(OC)cc3)C(=O)c3ccccc32)cc1`: 12.7%; `O=C1NC(c2ccc(Br)cc2)=N/C1=C/c1ccccc1F`: -2.8%.
Next, `COc1ccccc1Oc1ccccc1C(=O)O`: 6.4%; `CCOc1ccc(N2C(=O)/C(=C/c3ccc(OC)c(OC)c3C(=O)O)SC2=S)cc1`: 4.2%; `c1ccc(CN2CCC(N3CCN(C4CCC(c5ccccc5)CC4)CC3)CC2)cc1` (stereo unspecified): -2.9%.
Next, `COc1cccc(N(CC(=O)Nc2ccc(C(C)C)cc2)S(=O)(=O)c2ccccc2)c1`: 7.3%; `Cc1sc(NC(=O)c2ccc(Br)o2)c(C(N)=O)c1C`: 10%.
With `Cc1cccc(NC(=O)c2ccc(OC3CSC3)cc2)c1`, the displacement was -4.7%.
With `Cc1ccccc1/C=N/N1CCN(Cc2cccc3ccccc23)CC1`, the displacement was 10.6%.
On to `O=C(NCCCNc1ccc([N+](=O)[O-])cc1C(F)(F)F)c1ccc(Cl)cc1`, for which the displacement is -3.7%.
Next, `CCN(CC)C(=O)COc1ccc2oc(C)c(C(=O)OC)c2c1`: 5.9%; `Cc1ccc(C)c(OCCOCCOc2ncnc3ccccc23)c1`: 18.4%.
The same measure for `CC1(C)N([O-])c2cc([N+](=O)[O-])ccc2[N+]1=O`: 35.3%; for `O=C(O)/C=C\C(=O)N/N=C/c1ccccc1`: 9.4%.
Next, `O=C(CSc1nc(-c2ccccc2)c(-c2ccccc2)o1)Nc1ccc([N+](=O)[O-])cc1`: 2.5%.
Regarding `COc1cc(C(=O)N/N=C(\C)c2ccc(Cl)s2)ccc1O`, the displacement was determined as 0.2%.
Next, `O=C1NC(=S)N(c2ccccc2)C(=O)/C1=C/c1cc(Cl)c(O)c(Cl)c1`: -10.9%; `CCCn1c(=O)c(C(=O)Nc2cccc(C)n2)c(O)c2ccccc21`: 21.8%.
The same measure for `COc1ccc(/C=C/C(=O)Nc2ccccc2Cl)cc1Br`: 9.2%; for `CCOc1cc(OCC)cc(C(=O)Nc2cc(C)ccn2)c1`: 12.6%; for `COc1ccc(-c2nc3cc(NC(=O)c4ccc(F)cc4)ccc3o2)cc1Cl`: 0.9%.
The same measure for `Cc1ccc(-n2c(Cc3ccccc3)nc3c(cnn3-c3ccccc3)c2=O)cc1C`: 1%.
